Data: PMC4336329 (PLoS ONE, 2015)
Hit rate of the full screen: of about 310,000 compounds, about 14,000 (4.5%) showed an effect of 50% or more. Effects have a minus sign here. The list shows a part of the results.
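Further: peak tail current of the secondary pulse compared with the same well before compound.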

Each compound was assayed against human ether-à-go-go-related gene (hERG) potassium channel (human, UniProt Q12809) (assay: primary screen, population patch clamp on CHO cells stably expressing hERG).
Chain of human ether-à-go-go-related gene (hERG) potassium channel (Q12809 whole entry, looked up): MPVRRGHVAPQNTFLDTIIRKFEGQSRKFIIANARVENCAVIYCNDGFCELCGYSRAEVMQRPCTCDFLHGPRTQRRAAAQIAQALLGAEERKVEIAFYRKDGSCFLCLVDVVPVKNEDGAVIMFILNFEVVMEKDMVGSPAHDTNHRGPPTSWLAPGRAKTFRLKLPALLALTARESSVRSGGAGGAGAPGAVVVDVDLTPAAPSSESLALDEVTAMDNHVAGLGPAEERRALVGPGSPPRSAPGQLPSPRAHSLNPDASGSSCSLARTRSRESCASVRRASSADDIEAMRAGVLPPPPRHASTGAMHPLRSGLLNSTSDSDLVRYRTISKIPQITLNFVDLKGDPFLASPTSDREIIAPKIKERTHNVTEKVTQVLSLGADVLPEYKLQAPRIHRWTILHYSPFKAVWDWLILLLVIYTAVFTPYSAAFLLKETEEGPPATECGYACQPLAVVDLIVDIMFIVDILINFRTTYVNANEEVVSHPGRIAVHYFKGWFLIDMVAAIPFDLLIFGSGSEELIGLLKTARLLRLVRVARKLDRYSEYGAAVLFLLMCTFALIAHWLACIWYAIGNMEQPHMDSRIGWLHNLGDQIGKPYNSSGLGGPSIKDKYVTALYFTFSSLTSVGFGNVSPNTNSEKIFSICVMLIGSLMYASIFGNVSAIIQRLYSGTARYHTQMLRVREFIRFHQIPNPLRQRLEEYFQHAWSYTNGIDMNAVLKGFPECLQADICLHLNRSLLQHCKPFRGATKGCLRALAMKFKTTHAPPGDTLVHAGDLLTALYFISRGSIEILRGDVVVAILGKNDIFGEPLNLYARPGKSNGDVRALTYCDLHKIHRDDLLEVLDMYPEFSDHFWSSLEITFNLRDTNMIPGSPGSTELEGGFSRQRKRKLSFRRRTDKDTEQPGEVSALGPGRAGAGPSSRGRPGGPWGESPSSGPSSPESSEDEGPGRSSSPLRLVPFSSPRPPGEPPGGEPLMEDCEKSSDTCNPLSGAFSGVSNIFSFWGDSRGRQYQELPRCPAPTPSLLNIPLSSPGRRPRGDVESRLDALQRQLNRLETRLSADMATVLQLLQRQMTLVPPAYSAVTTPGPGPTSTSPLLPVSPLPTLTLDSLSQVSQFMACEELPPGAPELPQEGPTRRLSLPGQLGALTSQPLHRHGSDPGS
With COC(=O)c1ccsc1NC(=O)c1ccc2c(c1)OCCO2 the “hERG current change (%, negative = inhibition) at 10uM” value was 8.1%.
C=CCOc1cccc(C2C(C(=O)c3ccco3)=C(O)C(=O)N2Cc2ccco2)c1 (centres unmarked) was tested, and the “hERG current change (%, negative = inhibition) at 10uM” value was 9.44%.
CC(C)N(C)Cc1cn(C)nc1-c1ccc(Oc2ccccc2)cc1 was tested, and the “hERG current change (%, negative = inhibition) at 10uM” value was -30.2%.
With Cc1ccc(S(=O)(=O)N2CC(=O)Nc3ccccc32)cc1 the “hERG current change (%, negative = inhibition) at 10uM” value was -5.87%.
For CC(C)(C)c1csc(NC(=O)c2cccs2)n1, the “hERG current change (%, negative = inhibition) at 10uM” value was -16.3%.
With CCCCNC(=O)CSc1nnc(-c2c[nH]c3ccccc23)n1CC1CCCO1 (centres unmarked) the “hERG current change (%, negative = inhibition) at 10uM” value was -3%.
With CC(=O)Nc1ccc(OC(=O)c2cccs2)cc1 the “hERG current change (%, negative = inhibition) at 10uM” value was -7.22%.
O=S(=O)(/N=C(/Nc1ccc(Cl)c(S(=O)(=O)N2CCOCC2)c1)c1ccc(F)cc1)c1ccccc1 was tested, and the “hERG current change (%, negative = inhibition) at 10uM” value was -21%.
In the case of CSc1cccc(CNC(=O)C2CCC(=O)N(CCCN3CCCC3=O)C2)c1 (centres unmarked), the “hERG current change (%, negative = inhibition) at 10uM” value is reported as 20.5%.
For Cc1c(C(=O)NCc2ccc3c(c2)cc(C)n3C)cccc1[N+](=O)[O-], the “hERG current change (%, negative = inhibition) at 10uM” value was 0.389%.
For COc1cc2nc(N(CCCN(C)C)C(=O)c3ccc(S(=O)(=O)N4CCc5ccccc54)cc3)sc2cc1OC.Cl, the “hERG current change (%, negative = inhibition) at 10uM” value was -23.6%.
Cn1nc(C(=O)NCCc2ccc(S(N)(=O)=O)cc2)c2c1-c1ccccc1S(=O)(=O)C2 was tested, and the “hERG current change (%, negative = inhibition) at 10uM” value was 8.39%.
With COc1ccccc1N/N=C1\COC(C)(C)CC1=O the “hERG current change (%, negative = inhibition) at 10uM” value was -6.5%.
With COc1cccc(N2CCC(N3CCN(C)C(CCO)C3)CC2)c1 (centres unmarked) the “hERG current change (%, negative = inhibition) at 10uM” value was 18.7%.
In the case of CC(C)OC(=O)CSc1nnc(Cc2ccccc2)n1C, the “hERG current change (%, negative = inhibition) at 10uM” value is reported as -1.69%.
With CC(=O)Nc1ccc(NC2CCCCC2NS(=O)(=O)c2ccccc2)cc1 (centres unmarked) the “hERG current change (%, negative = inhibition) at 10uM” value was 10.8%.
With NC(=O)CSc1nc2cc(Cl)ccc2c(=O)n1C1CCCCC1 the “hERG current change (%, negative = inhibition) at 10uM” value was -14%.
In the case of NC(=S)N/N=C1\CC(n2nnn(-c3cccc(Cl)c3)c2=S)C2COC1O2 (centres unmarked), the “hERG current change (%, negative = inhibition) at 10uM” value is reported as -26.8%.
For CCOC(=O)C1CCN(C(=O)CN2C(=O)NC3(CCCCC3)C2=O)CC1, the “hERG current change (%, negative = inhibition) at 10uM” value was 13.9%.
With Cc1ccc(CCNC(=O)CS(=O)Cc2nc(-c3cccc(C)c3)oc2C)cc1 (centres unmarked) the “hERG current change (%, negative = inhibition) at 10uM” value was -15.4%.
With Cc1ccc(N2CCN(S(=O)(=O)N(C)C)CC2)cc1C the “hERG current change (%, negative = inhibition) at 10uM” value was 6.36%.
With COCCNC(=O)C(c1ccc(F)cc1)N(Cc1ccccc1)C(=O)CCC(=O)Nc1ccccn1 (centres unmarked) the “hERG current change (%, negative = inhibition) at 10uM” value was 8.9%.
In the case of CCOC(=O)NN1C(=O)c2ccccc2NC1c1cccs1 (centres unmarked), the “hERG current change (%, negative = inhibition) at 10uM” value is reported as -38.4%.
With CCOc1ccc2nc(N/C(N)=N/C(=S)Nc3cccc(OC)c3)nc(C)c2c1 the “hERG current change (%, negative = inhibition) at 10uM” value was -0.334%.
For O=C(CN1C(=O)C2C3C=CC(C4CC34)C2C1=O)Oc1ccccc1 (centres unmarked), the “hERG current change (%, negative = inhibition) at 10uM” value was 0.512%.
For Cc1ccc2nc(SCC(=O)OCc3ccccc3)nc(=O)n2c1, the “hERG current change (%, negative = inhibition) at 10uM” value was -10.9%.
CCCS(=O)(=O)N1CCCC(C(=O)NCc2cccnc2)C1 (centres unmarked) was tested, and the “hERG current change (%, negative = inhibition) at 10uM” value was 17.2%.
With CC(=O)c1c(N2CCN(Cc3ccccc3)CC2)nc(=S)n(Cc2ccccc2)c1C the “hERG current change (%, negative = inhibition) at 10uM” value was -37.7%.
For Cn1cc(-c2ccccc2C(=O)O)c(=O)c2ccccc21, the “hERG current change (%, negative = inhibition) at 10uM” value was 22.4%.
For O=C(Nc1ccccc1Cl)c1cc(S(=O)(=O)N2CCCCC2)ccc1N1CCOCC1, the “hERG current change (%, negative = inhibition) at 10uM” value was -39.7%.
In the case of COc1ccc2[nH]c(C(=O)O)c(NC(=O)c3ccccc3[N+](=O)[O-])c2c1, the “hERG current change (%, negative = inhibition) at 10uM” value is reported as 10.5%.
N#Cc1c(NC(=O)CSCC(=O)O)sc2c1CCCC2 was tested, and the “hERG current change (%, negative = inhibition) at 10uM” value was 1.5%.
In the case of Fc1c(F)c(C(F)(F)F)c(F)c(F)c1N/N=C\c1cccs1, the “hERG current change (%, negative = inhibition) at 10uM” value is reported as 15.5%.
With COc1ccc(OCC(O)Cn2ccnc2C)cc1 (centres unmarked) the “hERG current change (%, negative = inhibition) at 10uM” value was 5.09%.
COC(=O)c1cc2sccc2n1CC(=O)Nc1ccc(OC)c(OC)c1OC was tested, and the “hERG current change (%, negative = inhibition) at 10uM” value was -1.08%.
For CCn1c(SCC(N)=O)nnc1-c1ccc(S(=O)(=O)N2CCN(C)CC2)cc1, the “hERG current change (%, negative = inhibition) at 10uM” value was 0.745%.
For CC(=O)c1ccc(S(=O)(=O)N2CCNCC2)cc1.Cl, the “hERG current change (%, negative = inhibition) at 10uM” value was -1.77%.
In the case of C/C(=N\NC(=O)CCn1nnc2ccccc21)c1cccs1, the “hERG current change (%, negative = inhibition) at 10uM” value is reported as 11.8%.
For CCCc1nc2ccc(NC(C)=O)cc2c(=O)n1Cc1ccc(Cl)cc1, the “hERG current change (%, negative = inhibition) at 10uM” value was 13.1%.
With Cc1cc(Cl)ccc1OC(C)C(=O)NN=C1CCCCCC1 (centres unmarked) the “hERG current change (%, negative = inhibition) at 10uM” value was 7.3%.
CNC(=O)COC(=O)c1cc(-c2ccco2)nc2ccccc12 was tested, and the “hERG current change (%, negative = inhibition) at 10uM” value was -2.59%.
With Cc1ccc(NC(=O)C2C3/C=C\CCCCC32)cc1 (centres unmarked) the “hERG current change (%, negative = inhibition) at 10uM” value was 18.9%.
O=C(CCN1CCN(c2ccccc2F)CC1)Nc1ccc(F)cc1 was tested, and the “hERG current change (%, negative = inhibition) at 10uM” value was -18.3%.
CNC(C)C(=O)NC(C(=O)N1CCCC1C(=O)NC1CCCc2ccccc21)C(C)C.O=CO (centres unmarked) was tested, and the “hERG current change (%, negative = inhibition) at 10uM” value was 10.7%.
With COc1cc(/C=C2/C(=N)N3C=CSC3=NC2=O)ccc1OCCCOc1cc(C)ccc1C the “hERG current change (%, negative = inhibition) at 10uM” value was 2.54%.
With O=C(c1ccc(-c2ccc([N+](=O)[O-])cc2)o1)N1CCCCC1 the “hERG current change (%, negative = inhibition) at 10uM” value was -58.4%.
With O=S(=O)(NCc1csc(-c2cccnc2)n1)c1ccc2c(c1)OCCO2 the “hERG current change (%, negative = inhibition) at 10uM” value was -9.89%.
In the case of Cc1cc(C)nc(SCC(=O)N/N=C\C(Br)=C\c2ccccc2)n1, the “hERG current change (%, negative = inhibition) at 10uM” value is reported as 8.74%.
With CCOc1ccc(C(=O)Nc2sc3c(c2C(=O)OC)CC(C)(C)NC3(C)C)cc1 the “hERG current change (%, negative = inhibition) at 10uM” value was -7.16%.
NC(=O)c1ccccc1NC(=O)/C=C/c1ccccc1 was tested, and the “hERG current change (%, negative = inhibition) at 10uM” value was 4.98%.
In the case of COc1ccc(C2NC(=S)NC3=C2CCCC3=C2SCCS2)cc1 (centres unmarked), the “hERG current change (%, negative = inhibition) at 10uM” value is reported as 7.94%.
With COC(=O)C1CCN(C(=O)Cc2ccc(Br)cc2)CC1 the “hERG current change (%, negative = inhibition) at 10uM” value was -2.03%.
CCCCn1c(N)c(N(CCOC)C(=O)COc2ccc(Cl)cc2)c(=O)[nH]c1=O was tested, and the “hERG current change (%, negative = inhibition) at 10uM” value was 43.5%.
For CCOC(=O)C1C(=O)CC(C)(O)C(C(=O)OCC)C1c1ccc(NC(C)=O)cc1 (centres unmarked), the “hERG current change (%, negative = inhibition) at 10uM” value was 19.4%.
With CC(=O)Nc1ccc(NC(=O)CN(c2ccc(C(C)C)cc2)S(=O)(=O)c2ccccc2)cc1 the “hERG current change (%, negative = inhibition) at 10uM” value was 37.6%.
For N#C/C(=C\c1ccc[nH]1)C(=O)Nc1ccccc1Cl, the “hERG current change (%, negative = inhibition) at 10uM” value was -18.2%.
